Our source for the GI50 and TGI values is PubChem BioAssay (NCI).

Usually GI50 stands for the concentration that inhibits growth by half. The term TGI denotes the concentration at which net growth stops. Read a high TGI as less potent growth arrest.

SMILES strings stand for the structures.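 Where inhibition never reached the appropriate level, the endpoint shown equals the highest concentration tested. Otherwise, values were interpolated linearly from a five-concentration, 48-hour dose response in 96-well plates. GI50 = concentration required for 50% inhibition of growth. TGI marks complete inhibition of growth.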

This assay relates to NCI-H322M lung. Briefly: DTP human tumour cell line panel, 48 h.

Take `Cn1cc(-c2nc(N)nnc2-c2c[nH]c3ccccc23)c2cc(Br)ccc21`: the GI50 was 3.95 µM and the TGI was 19.8 µM.
